Source: the supplement of paper PMC11876631
± gives the standard deviation of the averaged measurements. Laboratory Escherichia coli strains with one amino-acid change in an essential protein, pooled on minimal glucose agar with carbenicillin or gentamicin at twice the control MIC (plus kanamycin and chloramphenicol for the plasmids), 48 h. Fold change of barcode share against drug-free plates; higher = less susceptible. Active = above 20 in both replicates (the paper's putatively resistant). '<' = one read or none on drug, '>' = one read or none on a drug-free plate. Shares are relative, so most strains fall below 1 when a few take over. Listed are strains with at least 15 reads on both drug-free plates, and hits; most hits rest on fewer reference reads. Replicate rank correlation about 0.5. Edits are read from barcodes.

Biological target: Escherichia coli (laboratory strain)
Test: barcode share on antibiotic plates over drug-free plates; higher = less susceptible
Description: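 A pool of E. coli strains, each edited to carry one amino-acid change in an essential protein, was grown for 48 h on minimal glucose agar with or without antibiotic; strain barcodes were sequenced; mean of two replicates.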

[1] = antibiotic: carbenicillin, 2× MIC (3.1 µg/mL)
[2] = antibiotic: gentamicin, 2× MIC (MIC 0.45 µg/mL)

B1: aroA L352A (protein)
chain: MESLTLQPIARVDGTINLPGSKSVSNRALLLAALAHGKTVLTNLLDSDDVRHMLNALTALGVSYTLSADRTRCEIIGNGGPLHAEGALELFLGNAGTAMRPLAAALCLGSNDIVLTGEPRMKERPIGHLVDALRLGGAKITYLEQENYPPLRLQGGFTGGNVDVDGSVSSQFLTALLMTAPLAPEDTVIRIKGDLVSKPYIDITLNLMKTFGVEIENQHYQQFVVKGGQSYQSPGTYLVEGDASSASYFLAAAAIKGGTVKVTGIGRNSMQGDIRFADVLEKMGATICWGDDYISCTRGELNAIDMDMNHIPDAAMTIATAALFAKGTTTLRNIYNWRVKETDRLFAMATEARKVGAEVEEGHDYIRITPPEKLNFAEIATYNDHRMAMCFSLVALSDTPVTILDPKCTAKTFPDYFEQLARISQAA
fold change of barcode share [1]: 0.432 ± 0.052
fold change of barcode share [2]: 0.00643 ± 0.0032

B2: aroA L352Q (protein)
chain: MESLTLQPIARVDGTINLPGSKSVSNRALLLAALAHGKTVLTNLLDSDDVRHMLNALTALGVSYTLSADRTRCEIIGNGGPLHAEGALELFLGNAGTAMRPLAAALCLGSNDIVLTGEPRMKERPIGHLVDALRLGGAKITYLEQENYPPLRLQGGFTGGNVDVDGSVSSQFLTALLMTAPLAPEDTVIRIKGDLVSKPYIDITLNLMKTFGVEIENQHYQQFVVKGGQSYQSPGTYLVEGDASSASYFLAAAAIKGGTVKVTGIGRNSMQGDIRFADVLEKMGATICWGDDYISCTRGELNAIDMDMNHIPDAAMTIATAALFAKGTTTLRNIYNWRVKETDRLFAMATEQRKVGAEVEEGHDYIRITPPEKLNFAEIATYNDHRMAMCFSLVALSDTPVTILDPKCTAKTFPDYFEQLARISQAA
fold change of barcode share [1]: 0.518 ± 0.036
fold change of barcode share [2]: 0.0118 ± 0.0022

B3: aroA L352P (protein)
chain: MESLTLQPIARVDGTINLPGSKSVSNRALLLAALAHGKTVLTNLLDSDDVRHMLNALTALGVSYTLSADRTRCEIIGNGGPLHAEGALELFLGNAGTAMRPLAAALCLGSNDIVLTGEPRMKERPIGHLVDALRLGGAKITYLEQENYPPLRLQGGFTGGNVDVDGSVSSQFLTALLMTAPLAPEDTVIRIKGDLVSKPYIDITLNLMKTFGVEIENQHYQQFVVKGGQSYQSPGTYLVEGDASSASYFLAAAAIKGGTVKVTGIGRNSMQGDIRFADVLEKMGATICWGDDYISCTRGELNAIDMDMNHIPDAAMTIATAALFAKGTTTLRNIYNWRVKETDRLFAMATEPRKVGAEVEEGHDYIRITPPEKLNFAEIATYNDHRMAMCFSLVALSDTPVTILDPKCTAKTFPDYFEQLARISQAA
fold change of barcode share [1]: 0.962 ± 0.48
fold change of barcode share [2]: 0.0247 ± 0.0056

B4: leuA I194P (protein)
chain: MSQQVIIFDTTLRDGEQALQASLSVKEKLQIALALERMGVDVMEVGFPVSSPGDFESVQTIARQVKNSRVCALARCVEKDIDVAAESLKVAEAFRIHTFIATSPMHIATKLRSTLDEVIERAIYMVKRARNYTDDVEFSCEDAGRTPIADLARVVEAAINAGATTINIPDTVGYTMPFEFAGIISGLYERVPNPDKAIISVHTHDDLGLAVGNSLAAVHAGARQVEGAMNGIGERAGNCSLEEVIMAIKVRKDILNVHTAINHQEIWRTSQLVSQICNMPIPANKAIVGSGAFAHSSGIHQDGVLKNRENYEIMTPESIGLNQIQLNLTSRSGRAAVKHRMDEMGYKESEYNLDNLYDAFLKLADKKGQVFDYDLEALAFIGKQQEEPEHFRLDYFSVQSGSNDIATAAVKLACGEEVKAEAANGNGPVDAVYQAINRITEYNVELVKYSLTAKGHGKDALGQVDIVANYNGRRFHGVGLATDIVESSAKAMVHVLNNIWRAAEVEKELQRKAQHNENNKETV
fold change of barcode share [1]: 0.467 ± 0.11
fold change of barcode share [2]: < 0.00312

B5: leuA I254P (protein)
chain: MSQQVIIFDTTLRDGEQALQASLSVKEKLQIALALERMGVDVMEVGFPVSSPGDFESVQTIARQVKNSRVCALARCVEKDIDVAAESLKVAEAFRIHTFIATSPMHIATKLRSTLDEVIERAIYMVKRARNYTDDVEFSCEDAGRTPIADLARVVEAAINAGATTINIPDTVGYTMPFEFAGIISGLYERVPNIDKAIISVHTHDDLGLAVGNSLAAVHAGARQVEGAMNGIGERAGNCSLEEVIMAIKVRKDPLNVHTAINHQEIWRTSQLVSQICNMPIPANKAIVGSGAFAHSSGIHQDGVLKNRENYEIMTPESIGLNQIQLNLTSRSGRAAVKHRMDEMGYKESEYNLDNLYDAFLKLADKKGQVFDYDLEALAFIGKQQEEPEHFRLDYFSVQSGSNDIATAAVKLACGEEVKAEAANGNGPVDAVYQAINRITEYNVELVKYSLTAKGHGKDALGQVDIVANYNGRRFHGVGLATDIVESSAKAMVHVLNNIWRAAEVEKELQRKAQHNENNKETV
fold change of barcode share [1]: 0.446 ± 0.12
fold change of barcode share [2]: < 0.00947

B6: leuA I254W (protein)
chain: MSQQVIIFDTTLRDGEQALQASLSVKEKLQIALALERMGVDVMEVGFPVSSPGDFESVQTIARQVKNSRVCALARCVEKDIDVAAESLKVAEAFRIHTFIATSPMHIATKLRSTLDEVIERAIYMVKRARNYTDDVEFSCEDAGRTPIADLARVVEAAINAGATTINIPDTVGYTMPFEFAGIISGLYERVPNIDKAIISVHTHDDLGLAVGNSLAAVHAGARQVEGAMNGIGERAGNCSLEEVIMAIKVRKDWLNVHTAINHQEIWRTSQLVSQICNMPIPANKAIVGSGAFAHSSGIHQDGVLKNRENYEIMTPESIGLNQIQLNLTSRSGRAAVKHRMDEMGYKESEYNLDNLYDAFLKLADKKGQVFDYDLEALAFIGKQQEEPEHFRLDYFSVQSGSNDIATAAVKLACGEEVKAEAANGNGPVDAVYQAINRITEYNVELVKYSLTAKGHGKDALGQVDIVANYNGRRFHGVGLATDIVESSAKAMVHVLNNIWRAAEVEKELQRKAQHNENNKETV
fold change of barcode share [1]: 0.624 ± 0.25
fold change of barcode share [2]: < 0.0131

B7: leuA I254D (protein)
chain: MSQQVIIFDTTLRDGEQALQASLSVKEKLQIALALERMGVDVMEVGFPVSSPGDFESVQTIARQVKNSRVCALARCVEKDIDVAAESLKVAEAFRIHTFIATSPMHIATKLRSTLDEVIERAIYMVKRARNYTDDVEFSCEDAGRTPIADLARVVEAAINAGATTINIPDTVGYTMPFEFAGIISGLYERVPNIDKAIISVHTHDDLGLAVGNSLAAVHAGARQVEGAMNGIGERAGNCSLEEVIMAIKVRKDDLNVHTAINHQEIWRTSQLVSQICNMPIPANKAIVGSGAFAHSSGIHQDGVLKNRENYEIMTPESIGLNQIQLNLTSRSGRAAVKHRMDEMGYKESEYNLDNLYDAFLKLADKKGQVFDYDLEALAFIGKQQEEPEHFRLDYFSVQSGSNDIATAAVKLACGEEVKAEAANGNGPVDAVYQAINRITEYNVELVKYSLTAKGHGKDALGQVDIVANYNGRRFHGVGLATDIVESSAKAMVHVLNNIWRAAEVEKELQRKAQHNENNKETV
fold change of barcode share [1]: 0.3212 ± 0.0018
fold change of barcode share [2]: < 0.00996

B8: leuA I254A (protein)
chain: MSQQVIIFDTTLRDGEQALQASLSVKEKLQIALALERMGVDVMEVGFPVSSPGDFESVQTIARQVKNSRVCALARCVEKDIDVAAESLKVAEAFRIHTFIATSPMHIATKLRSTLDEVIERAIYMVKRARNYTDDVEFSCEDAGRTPIADLARVVEAAINAGATTINIPDTVGYTMPFEFAGIISGLYERVPNIDKAIISVHTHDDLGLAVGNSLAAVHAGARQVEGAMNGIGERAGNCSLEEVIMAIKVRKDALNVHTAINHQEIWRTSQLVSQICNMPIPANKAIVGSGAFAHSSGIHQDGVLKNRENYEIMTPESIGLNQIQLNLTSRSGRAAVKHRMDEMGYKESEYNLDNLYDAFLKLADKKGQVFDYDLEALAFIGKQQEEPEHFRLDYFSVQSGSNDIATAAVKLACGEEVKAEAANGNGPVDAVYQAINRITEYNVELVKYSLTAKGHGKDALGQVDIVANYNGRRFHGVGLATDIVESSAKAMVHVLNNIWRAAEVEKELQRKAQHNENNKETV
fold change of barcode share [1]: 0.399 ± 0.092
fold change of barcode share [2]: < 0.00533

B9: leuA I254Q (protein)
chain: MSQQVIIFDTTLRDGEQALQASLSVKEKLQIALALERMGVDVMEVGFPVSSPGDFESVQTIARQVKNSRVCALARCVEKDIDVAAESLKVAEAFRIHTFIATSPMHIATKLRSTLDEVIERAIYMVKRARNYTDDVEFSCEDAGRTPIADLARVVEAAINAGATTINIPDTVGYTMPFEFAGIISGLYERVPNIDKAIISVHTHDDLGLAVGNSLAAVHAGARQVEGAMNGIGERAGNCSLEEVIMAIKVRKDQLNVHTAINHQEIWRTSQLVSQICNMPIPANKAIVGSGAFAHSSGIHQDGVLKNRENYEIMTPESIGLNQIQLNLTSRSGRAAVKHRMDEMGYKESEYNLDNLYDAFLKLADKKGQVFDYDLEALAFIGKQQEEPEHFRLDYFSVQSGSNDIATAAVKLACGEEVKAEAANGNGPVDAVYQAINRITEYNVELVKYSLTAKGHGKDALGQVDIVANYNGRRFHGVGLATDIVESSAKAMVHVLNNIWRAAEVEKELQRKAQHNENNKETV
fold change of barcode share [1]: 0.429 ± 0.2
fold change of barcode share [2]: < 0.011

B10: accA M114A (protein)
chain: MSLNFLDFEQPIAELEAKIDSLTAVSRQDEKLDINIDEEVHRLREKSVELTRKIFADLGAWQIAQLARHPQRPYTLDYVRLAFDEFDELAGDRAYADDKAIVGGIARLDGRPVAIIGHQKGRETKEKIRRNFGMPAPEGYRKALRLMQMAERFKMPIITFIDTPGAYPGVGAEERGQSEAIARNLREMSRLGVPVVCTVIGEGGSGGALAIGVGDKVNMLQYSTYSVISPEGCASILWKSADKAPLAAEAMGIIAPRLKELKLIDSIIPEPLGGAHRNPEAMAASLKAQLLADLADLDVLSTEDLKNRRYQRLMSYGYA
fold change of barcode share [1]: 0.379 ± 0.062
fold change of barcode share [2]: 0.00358 ± 0.0019

B11: aroB V164W (protein)
chain: MERIVVTLGERSYPITIASGLFNEPASFLPLKSGEQVMLVTNETLAPLYLDKVRGVLEQAGVNVDSVILPDGEQYKSLAVLDTVFTALLQKPHGRDTTLVALGGGVVGDLTGFAAASYQRGVRFIQVPTTLLSQVDSSVGGKTAVNHPLGKNMIGAFYQPASVWVDLDCLKTLPPRELASGLAEVIKYGIILDGAFFNWLEENLDALLRLDGPAMAYCIRRCCELKAEVVAADERETGLRALLNLGHTFGHAIEAEMGYGNWLHGEAVAAGMVMAARTSERLGQFSSAETQRIITLLKRAGLPVNGPREMSAQAYLPHMLRDKKVLAGEMRLILPLAIGKSEVRSGVSHELVLNAIADCQSA
fold change of barcode share [1]: 0.914 ± 0.25
fold change of barcode share [2]: 0.0295 ± 0.014
